Results from PubChem BioAssay AID1259400 (National Center for Advancing Translational Sciences (NCATS), 2018).
Hit rate of the full screen: of about 350,000 compounds, about 2,100 (0.6%) were called active. The inconclusive results got no clear call from the source; some entries with a clear call stand among them for comparison.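 How the source made its calls: active means activity change of -60% or lower, but not beyond a set lower limit; inconclusive means change between -60% and -40%, or beyond the set limit; inactive means change above -40%.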

target: Relaxin receptor 1 (Homo sapiens) (UniProt Q9HBX9); assay: qHTS Assay for Antagonists of the Relaxin Receptor RXFP1; details: HEK293-RXFP1, relaxin-stimulated cAMP HTRF, 30 min; at 57.5 µM; active compounds read low
Chain of UniProt Q9HBX9 (Q9HBX9 whole entry, looked up): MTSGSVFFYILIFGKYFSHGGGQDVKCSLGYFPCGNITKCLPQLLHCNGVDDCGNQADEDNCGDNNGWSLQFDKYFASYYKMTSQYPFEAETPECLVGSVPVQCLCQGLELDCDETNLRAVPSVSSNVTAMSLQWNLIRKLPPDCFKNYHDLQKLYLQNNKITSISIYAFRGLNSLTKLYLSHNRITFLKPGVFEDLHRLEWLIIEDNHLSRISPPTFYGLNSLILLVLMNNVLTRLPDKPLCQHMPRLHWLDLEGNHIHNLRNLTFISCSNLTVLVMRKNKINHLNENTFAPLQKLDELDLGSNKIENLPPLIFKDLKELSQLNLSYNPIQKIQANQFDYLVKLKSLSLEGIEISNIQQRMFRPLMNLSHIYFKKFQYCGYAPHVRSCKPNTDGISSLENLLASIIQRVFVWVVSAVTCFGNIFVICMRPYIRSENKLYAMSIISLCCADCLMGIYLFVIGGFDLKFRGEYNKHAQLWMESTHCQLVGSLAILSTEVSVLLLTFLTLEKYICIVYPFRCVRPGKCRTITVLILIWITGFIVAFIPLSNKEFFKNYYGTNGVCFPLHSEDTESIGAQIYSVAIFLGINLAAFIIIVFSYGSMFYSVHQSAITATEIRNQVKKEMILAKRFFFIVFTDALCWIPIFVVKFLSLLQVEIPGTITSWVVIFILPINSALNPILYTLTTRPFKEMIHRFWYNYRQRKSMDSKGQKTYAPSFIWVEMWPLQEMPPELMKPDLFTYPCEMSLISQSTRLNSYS
On the % scale 0 is the no-effect control and ±100 the full control effect.

| SMILES | activity change, negative = inhibition |
| --- | --- |
| CCOC(=O)c1csc(NC(=O)c2ccc3c(c2)OCCO3)n1 | inconclusive: -52.1% |
| COc1ccccc1N1CCN(S(=O)(=O)CCNC(=O)C23CC4CC(CC(C4)C2)C3)CC1 | inconclusive: -59.5% |
| CCn1c(=O)cc(SCC(=O)N2CCCCC2)c2ccccc21 | inactive: 63.3% |
| COc1ccc(NC(=O)CN(C)C(=O)c2cc(-c3ccc(Cl)cc3)nc3ccccc23)cc1 | inconclusive: -47.4% |
| OC(CNCc1ccc(-c2ccccc2)cc1)c1ccccc1 (configuration not stated) | active: -60.7% |
| COc1ccc(NC(=O)C(=O)NCC2(c3ccccc3)CCCC2)c(OC)c1 | inconclusive: -40.5% |
| CCCCCc1ccc(C(=O)CCCC)c(=S)[nH]1 | active: -64.2% |
| NC(=O)c1ccc(NC(=O)COC(=O)CCC2CCCCC2)cc1 | inconclusive: -43.8% |
| Cc1cccc(N2CCN(C(=O)c3ccc4c(c3)c(C)c(C)n4C)CC2C)c1 (configuration not stated) | inconclusive: -43.1% |
| Cc1cc(C)c2sc(N(CCN(C)C)C(=O)c3cc(Cl)sc3Cl)nc2c1 | inconclusive: -51.5% |
| COc1ccccc1CN1CCC(CNC(=O)c2cnn(-c3ccc(C)c(C)c3)c2C2CCN(C(=O)OC(C)(C)C)CC2)CC1 | inconclusive: -52.5% |
| C=Cc1ccc(Cn2c(=O)cc(C)c3c(C)nn(C)c32)cc1 | inactive: -3.92% |
| Cn1cc([N+](=O)[O-])c(C(=O)NCc2ccco2)n1 | inconclusive: -50.8% |
| Fc1ccc(Br)cc1C1C=C(c2ccc(Br)s2)Nc2ncnn21 (configuration not stated) | active: -68.2% |
| CC1=NN(c2cccc(Cl)c2)C(=O)C12CC(C)=C(C)CS2 (configuration not stated) | inconclusive: -52% |
| CCN(CCNC(=O)C1CCN(Cc2nc(-c3ccc(Cl)cc3)oc2C)CC1)c1ccccc1 | active: -62.5% |
| Cn1c2ccccc2c2ncn(Cc3ccc(F)cc3)c(=O)c21 | inactive: -16.4% |
| CCSc1nnc(NC(=O)c2ccc3ccccc3n2)s1 | inconclusive: -49.8% |
| CCc1cccc(NC(=O)CCCn2nc(C)c3c(C)n(-c4ccccc4)nc3c2=O)c1 | active: -65.6% |
| O=C(NC1CCCCC1)c1cc(-c2ccc(Cl)cc2)on1 | inactive: -4.15% |
| Cc1cc(C)cc(NC(=O)CSc2nncn2-c2ccccn2)c1 | inconclusive: -55.5% |
| O=C(c1cnn(-c2cccc(F)c2)c1-n1cccc1)N1CCN(c2ccccc2F)CC1 | inconclusive: -45.8% |

| SMILES | activity change, negative = inhibition |
| --- | --- |
| COc1cc(C)cc(C(=O)C=Cc2ccccc2)c1O | inconclusive: -44.8% |
| COc1ccc(NC(=O)c2ccc3c(c2)N(Cc2cccc(Cl)c2)C(=O)c2ccccc2S3=O)cc1Cl (configuration not stated) | inactive: -31% |
| COc1ccc2nc(SCC(=O)Nc3cc(C)on3)c(C#N)cc2c1 | inactive: -2.1% |
| CCCC(=O)N(C1CC(C)C(C#N)(C#N)C1(C#N)C#N)N(C)C (configuration not stated) | active: -85.2% |
| CCc1nc2ccc(C(=O)N3CCN(c4ccccc4F)CC3)cc2nc1CC | inconclusive: -58.6% |
| Cc1cc(N/N=C/c2ccc(O)cc2O)nc(-c2ccccc2O)n1 | inconclusive: -56.7% |
| Cc1ccc(NC(=O)C2SC(=Nc3ccccc3)C(C(=O)Nc3ccc(Cl)cc3)=C2N)cc1 (configuration not stated) | active: -66.4% |
| O=C(CCCCCn1c(=S)[nH]c2cc3c(cc2c1=O)OCO3)N1CCN(C2CCCCC2)CC1 | inconclusive: -52.5% |
| CCN1C2OC3OC4C(OC3OC2N(CC)S1(=O)=O)N(CC)S(=O)(=O)N4CC (configuration not stated) | inactive: -12.5% |
| COc1cc(/C=N/n2c(-c3n[nH]c4c3CCC4)n[nH]c2=S)cc(OC)c1O | inconclusive: -47.5% |
| CC(NC(=O)c1ccccc1NC(=O)c1ccco1)C(=O)O (configuration not stated) | inactive: -0.623% |
| O=c1nc(N2CCCCCC2)nc(N2CCCCCC2)[nH]1 | inactive: -9.53% |
| CC1=NNC(=O)/C1=C\c1cn(-c2ccccc2)nc1-c1ccccc1 | active: -72.9% |
| O[C@@H](CNC[C@H](O)[C@H]1CCc2cc(F)ccc2O1)[C@@H]1CCc2cc(F)ccc2O1 | inconclusive: -52.3% |
| COC(=O)C(C(C)=O)C1=C/C(=N\S(=O)(=O)c2ccc(C)cc2)c2ccccc2C1=O (configuration not stated) | inactive: -9.44% |
| Oc1ccc(Cl)cc1Sc1cc(Cl)ccc1O | inconclusive: -40.1% |
| Cc1ccc(-c2cccc(NC(=O)C3C(C(=O)O)[C@@H]4C=C[C@H]3C4)c2)o1 (some centres not stated) | inactive: -16.1% |
| CCOC(=O)c1c(C)c(C(=O)NCc2ccc(OC)cc2)c(C)n1C | inconclusive: -45.3% |
| Cn1c(=O)c2cc(S(=O)(=O)Nc3cc(C(=O)O)cc(C(=O)O)c3)ccc2n(C)c1=O | inactive: 1.82% |
| CC(=C/c1ccccc1)/C=N/NC(=O)c1nnn(-c2nonc2N)c1CN1CCC(C)CC1 | inconclusive: -40.1% |
| CCOC(=O)C1(Cc2cccc(OC)c2)CCN(Cc2cccc3c2OCO3)CC1 | active: -94.5% |
| COCCNC(=O)COC(=O)c1cc(-c2ccc(OC)cc2)nc2ccccc12 | inconclusive: -53.5% |

| SMILES | activity change, negative = inhibition |
| --- | --- |
| Brc1ccc(NC2=Nc3ccccc3CC2)cc1 | inactive: -0.0873% |
| CCc1ccc(CN(Cc2cccnc2)C(=O)/C=C/c2ccc(OC)cc2)cc1 | inconclusive: -43.5% |
| COC(=O)c1cc2oc(C)cc2n1Cc1ccccc1Cl | inconclusive: -42.1% |
| C[C@H]1Oc2ccccc2C(=O)C1C(=O)c1ccccc1 (some centres not stated) | inactive: -19.3% |
| CCc1ccc2oc(C(=O)NCC(c3ccc(OC)cc3)N3CCCCC3)c(C)c2c1 (configuration not stated) | inconclusive: -43.8% |
| O=C(CCl)Nc1ccc(Sc2ccc(NC(=O)CCl)cc2)cc1 | active: -96.8% |
| O=C(Nc1cc(-c2ccccc2)sc1C(=O)O)c1cccc(F)c1 | inconclusive: -45.3% |
| O=C(CSc1nc2ccccc2s1)NNC(=S)Nc1ccc(Br)cc1 | inconclusive: -42.6% |
| CCC(C)NC(=O)CN1C(=O)c2cccnc2Sc2ccccc21 (configuration not stated) | inactive: -9% |
| COc1ccc(Br)cc1/C=N/Nc1ccc(S(=O)(=O)Nc2ccccc2C(=O)O)cc1[N+](=O)[O-] | inconclusive: -40% |
| Cn1nccc1C(=O)N/N=C/c1cccnc1 | inactive: 0.0551% |
| O=c1cc(-c2ccccc2)c2ccc3c(c2o1)CN(Cc1cccc(Cl)c1)CO3 | inconclusive: -57.2% |
| Cc1cccc(N2C(=O)C(Cl)=C(N3CCOCC3)C2=O)c1 | inactive: 2.2% |
| COC(=O)c1ccc2c(c1)C(C)(C)C(/C=C/c1ccc(OC)c(OC)c1OC)=[N+]2C | inconclusive: -43.2% |
| CSc1ccc(C(=O)C2CCCN(Cc3cccc4nccnc34)C2)cc1 (configuration not stated) | inactive: -23.9% |
| Cc1csc(SCC(=O)Nc2ccc(F)cc2Cl)n1 | inconclusive: -44% |
| CC(=O)c1cccc(NC(=O)CNC(=O)Cc2cccc3ccccc23)c1 | inconclusive: -45.3% |
| COCCNc1c(-c2ccc(OC)c(OC)c2)nc2ccc(Cl)cn12 | inactive: -2.86% |
| Fc1ccc(/C=C2\CCCC3=C2Nc2ncnn2C3c2ccc(F)cc2)cc1 (configuration not stated) | inconclusive: -51.6% |
| COc1cc(-c2cc(OC)c3c(C)oc(C)c3c(=O)c2)ccc1OC(=O)c1ccc(C)cc1 | inconclusive: -47.8% |
| CCOC(=O)C(CC)(CC)C(=O)/C=C/c1ccc(OC)cc1 | inconclusive: -40.8% |
| NS(=O)(=O)c1ccc(Nc2nc(-c3ccc(F)cc3)cs2)cc1 | inconclusive: -56.9% |

| SMILES | activity change, negative = inhibition |
| --- | --- |
| CC(=O)Nc1cc2nn(-c3ccccc3)nc2cc1Cl | inactive: -3.88% |
| COc1ccccc1Cc1nc(-c2ccc(Br)o2)no1 | inconclusive: -46% |
| CCCCc1ccc(-n2c(Cc3cccs3)n[nH]c2=S)cc1 | inconclusive: -43% |
| COc1ccc(C(=O)N2CCN(C3CCCCC3)CC2)cc1OC | inactive: -0.525% |
| CC(C)Oc1ccc(C(=O)/C=C2/C(=O)Nc3ccccc32)cc1 | inconclusive: -52.8% |
| CCOC(=O)c1cc(-c2ccc(OC)cc2)n(CCC(=O)NCCc2ccccc2)c1C | active: -62% |
| Cn1c2ccccc2n2c(=O)cc(-c3ccccc3)c(C#N)c12 | inactive: 13.2% |
| O=C1NC(=Nc2ccccc2Cl)S/C1=C\c1cccc([N+](=O)[O-])c1 | inconclusive: -51.3% |
| O=C(C#Cc1ccccc1)c1cccc([N+](=O)[O-])c1 | inconclusive: -43.9% |
| O/N=C(\c1ccc(Cl)cc1Cl)c1ncc(C(F)(F)F)cc1Cl | inconclusive: -55.9% |
| O=C(CNS(=O)(=O)c1ccc(Br)cc1)N1CCN(Cc2ccccc2)CC1 | inactive: -10.1% |
| COc1ccc(NC(=O)/C(Cl)=C(/Cl)S(=O)(=O)Cc2ccc(C)cc2)cn1 | active: -70.9% |
| Cc1ccc(N=c2c([N+](=O)[O-])nn(-c3ccc4c(c3)OCCO4)n2O)cc1F | inconclusive: -43.4% |
| CC(=O)OCP(C)(=O)COC(C)=O | inactive: -4.24% |
| Cc1ccc(-n2ncc(C(=O)NCc3ccco3)c2C2CCN(C(=O)OC(C)(C)C)CC2)cc1C | inconclusive: -41.1% |
| Cc1nc(SCc2ccc(Cl)c(Cl)c2)n[nH]1 | inactive: 7.37% |
| O=C(CSc1nc(-c2cccc(F)c2)[nH]c1-c1ccccc1)Nc1ccc2c(c1)OCO2 | inconclusive: -55.4% |
| O=C1NC(Cc2ccc(O)cc2)c2nc3ccc(Br)cc3c(=O)n2-c2ncccc21 (configuration not stated) | inactive: 5.27% |
| CC1CCN(C(=O)COC(=O)c2cc(S(=O)(=O)N3CCOCC3)ccc2Cl)CC1 | inconclusive: -45.7% |
| CC1=NN(c2ccccc2)C(=O)/C1=C\C=C\c1ccccc1 | active: -62.8% |
| CCN(CC)c1ccc2cc(-c3nc4sc5c(c4c(=O)[nH]3)CCC(C(C)(C)C)C5)c(=O)oc2c1 (configuration not stated) | inactive: 9.88% |
